Laboratory results from article PMC12136788.
The list shows a part of the results.

B1: 5117298_5117418_513_CDS_ENSMUSG00000024862_ENSMUST00000116563|mouse|control|control (ssRNA)
RNA: GGGAGUUCUACAGUCCGACGAUCGGGAGCUAGCAGGGCACGAUGCUCCCCUCUCAGGGUCUCUAAACCCUGGAUCACCGCCUUGGUGCCCAGCACUAUCUCGUCCUGACUCAGCUUCUCCUCUCGAGGAAGCACCAUCGUGGCCAACAGAGGAUUGAGCAUCA
B2: chr10:102306293:102306294:+_ENSG00000166135_ENST00000299163|hu_hu|motif|central (ssRNA)
RNA: GGGAGUUCUACAGUCCGACGAUCAGCCCCCUUAUACCAGAAGUUCACAGUGAUGGUAAUCCCCCCAUUUAGUAAUGACUCGGUGUGAUGCCACCAGUACAUUGGGAUGUAAAGAACAUCACCAGGGCCAACCACUGUUUCGUACAACAGAGGAUUGAGCAUCA
B3: 27594204_27595603_414_CDS_ENSG00000115234_ENST00000233575|human|control|control (ssRNA)
RNA: GGGAGUUCUACAGUCCGACGAUCUUGCAUGUACUUCUCUAACUGCUCUCUCCUCUGUUCUACCUCAGCAGGAGUCAGAGAGAAAAGCUUCUUUGGGGGGAAUGCAGGAAGCACAUUGGCCCCAUACUCCUUCCGAAGCUGCUCCAACAGAGGAUUGAGCAUCA
B4: 91351981_91352101_656_3pUTR_ENSMUSG00000055013_ENSMUST00000027521|mouse|control|control (ssRNA)
RNA: GGGAGUUCUACAGUCCGACGAUCGCUCGUAGAUGGAGUAGAUGUUGGGGUGGACCGACUCGAAGCGCUGGAUCUCGGCCCGGAUGGCAGCCGAGUUGGCCAGCUGCUGCUGGUAGUUCAUGGUGCAGGCGCGGCGCCCAAAGCCAACAGAGGAUUGAGCAUCA
B5: chr7:150251850:150251851:+_ENSMUSG00000037706_ENSMUST00000037941|mus_hu|FALSE|FALSE (ssRNA)
RNA: GGGAGUUCUACAGUCCGACGAUCAAAGCCCCAGAUGCCGGCGGCCACCUCACAGGCAAACAGGAUGACCAGGCAGGUGAAGAACGUCCCCAGCAGGCACUGGGAUUCCUGGAUGGCCCCGUAGCAGCCCAGGAAGCCAACGAACAACAGAGGAUUGAGCAUCA
B6: chr7:141445308:141445309:+_ENSG00000106028_ENST00000265304|hu_hu|hu_hu_hu_mus_False|28_88 (ssRNA)
RNA: GGGAGUUCUACAGUCCGACGAUCUAUGAUUGUUGUUGCUUGCCGCCUCACAUUAUUUUUAUCCAUGUACUCGCCAUAGUCCACUUUCCCUUCCACAAAUAUACGAGACCCCUUUUUCACAUACUGAUAUGCCACAUCUCUGAGCAACAGAGGAUUGAGCAUCA
B7: 72957486_72958841_795_CDS_ENSMUSG00000036698_ENSMUST00000044113|mouse|control|control (ssRNA)
RNA: GGGAGUUCUACAGUCCGACGAUCUGGCUGUGCCUUGUAAAACGCUGUUGCCGAUACAUCAAUAUUCAGCAUCAUUUUCCAAAGAGAAGGUCGGACGGACUGAUGGAAGCCAAACCACACUUCUCUGCCCCCACCCAGAGGGUUCAACAGAGGAUUGAGCAUCA
B8: chr7:90019630:90019631:+_ENSMUSG00000057706_ENSMUST00000082237|mus_hu|FALSE|FALSE (ssRNA)
RNA: GGGAGUUCUACAGUCCGACGAUCUAUAUCACUGAAUAGAAAAUAUGCUGGGUGAAGCAGAUCUAGAAGAUUUGUCUGAACCUAUAAAAUCUCCAUCCCAACAGAAUACUGUUCAAAACAUUACACAUUUUAUGGUUGUAAUUCCAACAGAGGAUUGAGCAUCA
B9: 24660304_24660424_358_ncRNA_ENSMUSG00000036893_ENSMUST00000134775|mouse|control|control (ssRNA)
RNA: GGGAGUUCUACAGUCCGACGAUCAUGUUCAUGGGGGAUGUCACACAGUUCUGGGAGACAUACUUAUAGUUGGUAGGACACAGCUCACUGUCCACAGCAUUGACACAGGGAAUGGGAAUGCGCUCAUACCCUCGAGCGAUAUCCCAACAGAGGAUUGAGCAUCA
B10: chr4:140556289:140556290:+_ENSMUSG00000036622_ENSMUST00000037055|mus_mus|mus_mus_mus_hu_False|8_88 (ssRNA)
RNA: GGGAGUUCUACAGUCCGACGAUCGAUGGAGCUCACCAGGCCCCCUUUGGCUGUGCAGAACCCUGUGCGGGUCACCACUGCCAGGACGUGCGGUCCCACAUAGGCCCGGGCCUGCAAGAUGAGGGUCCCACAGAAGAGUGUGUGCAACAGAGGAUUGAGCAUCA
B11: chr3:94683992:94683993:+_ENSMUSG00000038902_ENSMUST00000107270|mus_hu|motif|central (ssRNA)
RNA: GGGAGUUCUACAGUCCGACGAUCGUUAAUGUUGCCAUCGGGGCCAGGCAGAACACUAGCCACCAGGAAGGAGCGCUGAACGGGCUCUGGACAGUCCCCAAUGACACCUAGCACUUCACCCAGCCAGACAAGCACCAGCUGAAGCAACAGAGGAUUGAGCAUCA
B12: chr20:39729905:39729906:+_ENSG00000198900_ENST00000361337|hu_hu|FALSE|FALSE (ssRNA)
RNA: GGGAGUUCUACAGUCCGACGAUCGUAUUUAAUGGAACCUUGGAUGUUCUCUGUCCAGGAAACCAGCCAAGUAACCUUGUUAUCAUGCCGGACUUCUUUCCACUUAUGUCCUGGAGGAGGAGAAGGAACCUUGGCAUCUUUGCUCAACAGAGGAUUGAGCAUCA
B13: chr2:29001751:29001752:+_ENSG00000213639_ENST00000296122|perfect_dup|FALSE|FALSE (ssRNA)
RNA: GGGAGUUCUACAGUCCGACGAUCAGCCAAUAGCAAACAGAUGGUUUCCAAAGACUGCUUUCCUCUGUCCACAUAAUCUCCUAAGAAAAGAUAGUUGGCUUCUGGUGGAAAACCUCCAUAUUCAAAUAAUCUUAGUAAGUCUGUCAACAGAGGAUUGAGCAUCA
B14: chr10:70028019:70028020:-_ENSMUSG00000037747_ENSMUST00000162251|mus_hu|FALSE|FALSE (ssRNA)
RNA: GGGAGUUCUACAGUCCGACGAUCAGCCUUCUCCAACAAUUGUGUUAGAUGAACUUUUGAAUAGUCUGCGGUGCAGAAUUCUAUAAUUUCACUCCAUUCAGACACAACAUAAUCACCAUCAACUUGUUUUGAGGCAGUCUGCACCAACAGAGGAUUGAGCAUCA
B15: chr4:43572504:43572505:-_ENSMUSG00000028465_ENSMUST00000123985|mus_mus|motif|central (ssRNA)
RNA: GGGAGUUCUACAGUCCGACGAUCUCUCUCCAUUAGGUCAGUCGAAGAUGAGUCAAAGGUAUCGUCCCAGGCACAGAGAAUAGCACGGGCAAAGGUUGAGAGGCAGGAGAUCUCGGAGGAAUGCCCAGGAAAGUGAGGAGGCAACAACAGAGGAUUGAGCAUCA
B16: chr8:48798321:48798322:-_ENSMUSG00000038069_ENSMUST00000038738|mus_hu|motif|central (ssRNA)
RNA: GGGAGUUCUACAGUCCGACGAUCCAGUUCAUCUCUUGUUGUAUAGGUUGGAGCAUCUGUCACUUUGAUGCCUUCAGCCAUACGGAGUAUUUUAUCCAUAACUUUUUGAGGGUAUCGGCACCCGAGGAAGACGUGGUUCGCCCACAACAGAGGAUUGAGCAUCA
B17: chr22:19452774:19452775:-_ENSG00000070010_ENST00000399523|hu_hu|hu_hu_hu_mus_False|1_1 (ssRNA)
RNA: GGGAGUUCUACAGUCCGACGAUCCUUCUCAUUGUAGUUGAUAGCAAUCACAUCUCCAGUCGUCAGACAGGCGAAGUUUCUCAAUGCAUUUUCUAAUACCGCUUUAGGGUUGGUAAUAUCCAGGAAGUCUGGGCUCUGAGGUUGCAACAGAGGAUUGAGCAUCA
B18: 13929359_13931220_701_CDS_ENSMUSG00000038365_ENSMUST00000043520|mouse|control|control (ssRNA)
RNA: GGGAGUUCUACAGUCCGACGAUCCAGGGGCAGGUCACUGAGUGUGAGGCCAGUGUUUACCUGCUUUGUCACCUGGAGGUUCUGCAGCUGCUGCUGCCAGCUGAGGACGGUCUCCAGGCGGCAGAUCCAGAUGUUGAUGUUCCCCAACAGAGGAUUGAGCAUCA
B19: chr12:39763582:39763583:-_ENSG00000139116_ENST00000544797|hu_mus|hu_hu_hu_mus_False|68_68 (ssRNA)
RNA: GGGAGUUCUACAGUCCGACGAUCCUCUAGGAACUGGGCAUUCACUUUGAAUUCAGGAGGGGGCAGCCCAUUUUUAAUCGCUGAGGUCUUUUUCUCAUCAAUACUCUUGAACAGGUGUCUAACAGCACGAGAGAUGAUGCCCUGCAACAGAGGAUUGAGCAUCA
B20: 135554746_135554866_2364_CDS_ENSG00000125484_ENST00000372146|human|control|control (ssRNA)
RNA: GGGAGUUCUACAGUCCGACGAUCUUCAUCGUCAGCAUUGCCCAUCCCAGGCGAAUCCACUAGUAAGAUUUUUGAGUCCUCAUGGGUGGGUUUCCACAAGGCUUCUGAAGGGGUUUUCUGCAUUGACUGAUAUAAAAUCCUCAGCAACAGAGGAUUGAGCAUCA
B21: chr12:39756943:39756944:-_ENSG00000139116_ENST00000544797|hu_mus|hu_hu_hu_mus_False|68_78 (ssRNA)
RNA: GGGAGUUCUACAGUCCGACGAUCGGUUUGGCUGUUACCCCCAAGGGAAUCCUGCAAUAGUCUUGUUAGCUUGGAAUCUCUGUAAGGGACAUGGGUGGCUCUCUUGCUCUUGUCCCCCAAGGCGCUGAUUACAUUCCCAAGAGCCAACAGAGGAUUGAGCAUCA
B22: chr5:108714765:108714766:-_ENSG00000198961_ENST00000361557|hu_hu|FALSE|FALSE (ssRNA)
RNA: GGGAGUUCUACAGUCCGACGAUCACAAGCUCCUGGAAUAUACUCUCCCUCAGAGUGAUUAUGAAGAUUUGUACUGCUUCCUAAGGUAUCCCUGCCUUCCUCACUGUGAUGUACUGCAACAAAGGAUUGACUGCUCUCAGUGGUCAACAGAGGAUUGAGCAUCA

molecular target: T1, UNK ZnF1-3 (human, UniProt Q9C0B0 31-174); assay: nsRBNS (natural sequence RNA bind-n-seq); RBNS binding buffer (assumed for nsRBNS): 25 mM Tris pH 7.5, 150 mM KCl, 3 mM MgCl2, 0.01% Triton X-100, 500 ug/ml BSA, 20 U/ml SUPERase-In, 4 C; UNK is unkempt and MSI1 is Musashi-1; names of the RNAs are library labels; protein concentration not given here; high values mean tight binding
T1 sequence: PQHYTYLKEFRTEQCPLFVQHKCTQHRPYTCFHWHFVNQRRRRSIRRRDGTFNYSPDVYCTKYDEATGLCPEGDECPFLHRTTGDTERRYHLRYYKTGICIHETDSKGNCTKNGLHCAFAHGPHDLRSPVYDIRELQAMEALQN

Binder	binding signal
B1	0.6 enrichment R
B2	1.37 enrichment R
B3	0.618 enrichment R
B4	0.833 enrichment R
B5	1.28 enrichment R
B6	0.774 enrichment R
B7	1.17 enrichment R
B8	0.715 enrichment R
B9	1.01 enrichment R
B10	0.898 enrichment R
B11	1.15 enrichment R
B12	0.537 enrichment R
B13	1.88 enrichment R
B14	1.28 enrichment R
B15	2.35 enrichment R
B16	0.614 enrichment R
B17	0.884 enrichment R
B18	0.556 enrichment R
B19	1.46 enrichment R
B20	0.627 enrichment R
B21	0.729 enrichment R
B22	2.06 enrichment R
